Reference: the antibiotic and cytotoxicity screens of Wong et al. (2023)
The list shows a part of the results.

How the values were obtained:
HSkMC = human skeletal muscle cells; test: cytotoxicity call (relative viability < 0.9); conditions: 10 µM
HepG2 = test: cytotoxicity call (relative viability < 0.9); conditions: 10 µM
S. aureus RN4220 = test: growth inhibition call (relative growth <= 0.2); conditions: 50 µM

SMILES	cytotoxicity call (HSkMC)	cytotoxicity call (HepG2)	growth inhibition call (S. aureus RN4220)
Cc1noc(C)c1NC(=O)N(C)C[C@@H]1Oc2c(NC(=O)C3CC3)cccc2C(=O)N([C@H](C)CO)C[C@H]1C	inactive	inactive	inactive
COCC(=O)Nc1ccc2c(c1)C(=O)N(C)[C@@H]1CC[C@@H](CC(=O)NC3Cc4ccccc4C3)O[C@H]1CO2	inactive	inactive	inactive
COc1cccc(-c2ccc3c(c2)O[C@H](CN(C)C(=O)C2CCC2)[C@@H](C)CN([C@H](C)CO)S3(=O)=O)c1	inactive	inactive	inactive
COc1ccc2c(=O)cc(-c3ccccc3)oc2c1OC	inactive	inactive	inactive
O=S(=O)(N1CCOCC1)N1CCCN(S(=O)(=O)N2CCOCC2)CC1	inactive	inactive	inactive
C[C@@H]1CN([C@H](C)CO)C(=O)c2cc(NC(=O)c3ccccc3)ccc2O[C@@H](C)CCCCO[C@@H]1CN(C)C(=O)Nc1cccc2ccccc12	inactive	inactive	inactive
Cn1cccc1C(=O)NCc1cn2c(n1)CN(S(C)(=O)=O)CC2	inactive	inactive	inactive
C[C@H]1CN([C@@H](C)CO)C(=O)c2cc(NC(=O)Nc3ccc(C(F)(F)F)cc3)ccc2O[C@@H]1CN(C)C(=O)NC1CCCCC1	inactive	inactive	inactive
C[C@@H]1CCCCO[C@@H](CN(C)Cc2ccc(Cl)c(Cl)c2)[C@H](C)CN([C@H](C)CO)C(=O)c2cc(NC(=O)Cc3ccccc3)ccc2O1	active	inactive	inactive
CCC(C)C(=O)OC1CC(C)C=C2C=CC(C)C(CCC3CC(O)CC(=O)O3)C21 (stereo unspecified)	inactive	inactive	inactive
COc1ccc(NC(=O)N(C)C[C@@H]2OCCCC[C@H](C)Oc3ccc(NC(=O)NC4CCCCC4)cc3C(=O)N([C@@H](C)CO)C[C@@H]2C)cc1	inactive	inactive	inactive
COc1ccc(C(=O)N[C@@H](C)c2nnc(SCc3cccc(C(F)(F)F)c3)n2-c2cccc(Cl)c2)cc1	inactive	inactive	inactive
C[C@H](CO)N1C[C@H](C)[C@@H](CN(C)C(=O)CN(C)C)Oc2cc(-c3cncnc3)ccc2S1(=O)=O	inactive	inactive	inactive
C[C@H]1CN([C@@H](C)CO)C(=O)c2cccc(NS(=O)(=O)c3ccc(Cl)cc3)c2O[C@H]1CN(C)Cc1ccc(-c2ccccc2)cc1	inactive	inactive	inactive
COc1ccc2c(c1)OCC(=Cc1ccc(OC)c(O)c1)C2=O	inactive	active	inactive
COc1ccc(CN(C)C[C@@H]2OCCCC[C@@H](C)Oc3ccc(NS(=O)(=O)c4ccccc4)cc3C(=O)N([C@H](C)CO)C[C@H]2C)cc1	inactive	inactive	inactive
C[C@@H]1CN([C@@H](C)CO)C(=O)c2cc(NC(=O)Nc3ccc4c(c3)OCO4)ccc2O[C@H]1CN(C)Cc1ccc(C(=O)Nc2ccccc2N)cc1	inactive	inactive	inactive
Cc1noc(C)c1NC(=O)Nc1cccc2c1O[C@H](CN(C)S(C)(=O)=O)[C@@H](C)CN([C@H](C)CO)C2=O	inactive	inactive	inactive
COc1ccccc1S(=O)(=O)N(C)C[C@H]1Oc2cc(Br)ccc2S(=O)(=O)N([C@H](C)CO)C[C@H]1C	inactive	inactive	inactive
C=C1C(=O)N(OCC)c2ccccc2[NH+]1[O-] (stereo unspecified)	inactive	inactive	inactive
CC(C)NC(=O)Nc1ccc2c(c1)CC(=O)N([C@H](C)CO)C[C@H](C)[C@H](CN(C)S(=O)(=O)c1ccc(F)cc1)O2	inactive	inactive	inactive
CC(C)NC(=O)N1Cc2cc(C(=O)NCC(F)(F)F)nc(-c3cccc(-c4cc5ccccc5o4)c3)c2[C@@H]1CCO	inactive	inactive	inactive
C[C@H](CO)N1C[C@H](C)[C@H](CN(C)Cc2ccc(C(=O)O)cc2)Oc2ccc(NC(=O)Nc3cccc4ccccc34)cc2CC1=O	inactive	inactive	inactive
C[C@H](CO)N1C[C@H](C)[C@H](CN(C)Cc2ccc(C(F)(F)F)cc2)Oc2ccc(NC(=O)Nc3ccc(F)cc3)cc2C1=O	inactive	inactive	inactive
CC(C)C(=O)Nc1nnc2n1CCS2	inactive	inactive	inactive
C[C@@H]1CN([C@@H](C)CO)C(=O)c2cc(C#Cc3ccncc3)cnc2O[C@@H]1CN(C)S(=O)(=O)c1ccccc1F	inactive	inactive	inactive
C[C@H]1CN([C@@H](C)CO)C(=O)c2cccc(NC(=O)Nc3ccc(C(F)(F)F)cc3)c2O[C@H]1CN(C)Cc1ccccc1	inactive	inactive	inactive
